Test results from article PMC4197044.
These are yes or no findings as the source states them, for the method shown. Some results given as binding are weak or reduced against the parent protein; the word gives no strength.

Tests used:
[1] = biological target: T1, Stn1 (S. pombe (fission yeast)) (UniProt Q0E7J7); assay: two-hybrid; as a1, but with Ten1 co-expressed alongside the GBD-Stn1 fusion protein; GBD and GAD plasmids in budding yeast PJ69-4A; growth on Sc-TRP-LEU-HIS and Sc-TRP-LEU-HIS-ADE; 30°C, 2 days
T1 sequence: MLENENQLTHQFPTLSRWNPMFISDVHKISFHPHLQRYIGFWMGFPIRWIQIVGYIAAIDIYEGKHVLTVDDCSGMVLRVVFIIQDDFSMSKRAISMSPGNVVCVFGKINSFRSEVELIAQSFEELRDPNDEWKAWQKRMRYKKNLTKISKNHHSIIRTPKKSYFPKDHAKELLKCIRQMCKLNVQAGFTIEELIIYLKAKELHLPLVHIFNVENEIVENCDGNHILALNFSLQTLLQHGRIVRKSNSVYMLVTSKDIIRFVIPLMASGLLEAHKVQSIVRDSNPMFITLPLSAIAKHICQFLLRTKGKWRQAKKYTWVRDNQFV

[2] = biological target: T1, Stn1 (S. pombe (fission yeast)); assay: two-hybrid; Gal4 DNA binding domain (GBD) and Gal4 activating domain (GAD) plasmids co-transformed in budding yeast PJ69-4A; fivefold dilutions spotted on Sc-TRP-LEU-HIS and Sc-TRP-LEU-HIS-ADE; 30°C, 2 days; without co-expressed Ten1
[3] = biological target: T2, Ten1 (S. pombe (fission yeast)) (UniProt P0C5Y7); assay: as above
T2 sequence: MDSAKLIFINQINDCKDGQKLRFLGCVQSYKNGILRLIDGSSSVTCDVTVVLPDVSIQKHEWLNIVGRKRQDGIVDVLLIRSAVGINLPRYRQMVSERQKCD

B1: Tpz1 (protein, UniProt O14246 1-508)
chain: MSNCLKHPWLENGLLNLIKNADVLPIRVFKCQPLQIFEYIRYEHPIRCKLSDTEFYIEAEFSSQSISDLNNFTEKRITSLRGGIVTLGNFLIHLIPSQSGIIPWIQVESFNFQGCEGAVFGNPKAITTSALFNALLQSPYLAALANEFNRSIKEGSSYQEASLSQQEKPNDNTSNSRDIKNNIQFHWKNMTSLSIEECIIPKGQQLILEKESEENTTHGIYLEERKMAQGLHNSVSETPEVKQEDNDEDLDAYSWSSSTDSAGEIPSLPTNRKILEKIAEKPPPFESPLEDDETPDQTNEHEANQVNVSQLPLNPRGSGISGRPVESTEQLNSSLTIERSQSIQSTDSKQRVETQSHRRSKIEIFDAQDELFDRSICTTIDDSTGKLLNAEETPIKTGDLHSTSASSVISCTPPAINFTSDICNEQIELEYKRKPIPDYDFMKGLETTLQELYVEHQSKKRRLELFQLTNNHQKNSEACEMCRLGLPHGSFFELLRDWKKIEEFRNKS
Q: With B1 as the binder, how does the binding [1] read?
A: binds

Q: What about the binding [2] of the same binder?
A: binds weakly

Q: And the binding [3]?
A: no binding

B2: Tpz1 243–420 (domain or fragment, UniProt O14246 243-420)
chain: QEDNDEDLDAYSWSSSTDSAGEIPSLPTNRKILEKIAEKPPPFESPLEDDETPDQTNEHEANQVNVSQLPLNPRGSGISGRPVESTEQLNSSLTIERSQSIQSTDSKQRVETQSHRRSKIEIFDAQDELFDRSICTTIDDSTGKLLNAEETPIKTGDLHSTSASSVISCTPPAINFTS
Q: With B2 as the binder, how does the binding [1] read?
A: binds

Q: And the binding [2]?
A: binds weakly

B3: SUMO (Pmt3) (protein, UniProt O13351 1-117)
chain: MSESPSANISDADKSAITPTTGDTSQQDVKPSTEHINLKVVGQDNNEVFFKIKKTTEFSKLMKIYCARQGKSMNSLRFLVDGERIRPDQTPAELDMEDGDQIEAVLEQLGGCTHLCL
Q: Which binding [1] does the source give for B3 here?
A: binds

Q: What about the binding [2] of the same binder?
A: binds

Q: What about the binding [3] of the same binder?
A: no binding
